Test results: PubChem BioAssay AID504339 (National Center for Advancing Translational Sciences (NCATS), 2011)
About 17,000 (4.4%) of roughly 390,000 compounds were called active. This list was built around the results that the source calls inconclusive (neither active nor inactive); the mix of calls is not that of the screen. Calls come from the whole dose curve; as a rule, active = well fitted inhibition curve with a large enough effect; inconclusive = small, poorly fitted or top-dose-only effect; inactive = no such curve, though single readings can be large or run the other way. A potency beside an inconclusive call is a rough fit, not a confirmed value.

What follows are compounds tested against Lysine-specific demethylase 4A (Homo sapiens) (UniProt O75164) (assay: qHTS Assay for Inhibitors of JMJD2A-Tudor Domain). Settings: AlphaScreen JMJD2A-Tudor / H3K4me3 peptide binding; activity change, negative = inhibition: at 114 µM (top of the series).
% is set by controls: 0 for no effect and ±100 for the full control effect; potency is the fitted concentration of half-maximal effect; tags give direction and shape of the fitted curve.
Note: nearly all actives have a fitted effect of over 50% in size.

Chain of UniProt O75164 (O75164 whole entry, looked up, the tested form may be a part): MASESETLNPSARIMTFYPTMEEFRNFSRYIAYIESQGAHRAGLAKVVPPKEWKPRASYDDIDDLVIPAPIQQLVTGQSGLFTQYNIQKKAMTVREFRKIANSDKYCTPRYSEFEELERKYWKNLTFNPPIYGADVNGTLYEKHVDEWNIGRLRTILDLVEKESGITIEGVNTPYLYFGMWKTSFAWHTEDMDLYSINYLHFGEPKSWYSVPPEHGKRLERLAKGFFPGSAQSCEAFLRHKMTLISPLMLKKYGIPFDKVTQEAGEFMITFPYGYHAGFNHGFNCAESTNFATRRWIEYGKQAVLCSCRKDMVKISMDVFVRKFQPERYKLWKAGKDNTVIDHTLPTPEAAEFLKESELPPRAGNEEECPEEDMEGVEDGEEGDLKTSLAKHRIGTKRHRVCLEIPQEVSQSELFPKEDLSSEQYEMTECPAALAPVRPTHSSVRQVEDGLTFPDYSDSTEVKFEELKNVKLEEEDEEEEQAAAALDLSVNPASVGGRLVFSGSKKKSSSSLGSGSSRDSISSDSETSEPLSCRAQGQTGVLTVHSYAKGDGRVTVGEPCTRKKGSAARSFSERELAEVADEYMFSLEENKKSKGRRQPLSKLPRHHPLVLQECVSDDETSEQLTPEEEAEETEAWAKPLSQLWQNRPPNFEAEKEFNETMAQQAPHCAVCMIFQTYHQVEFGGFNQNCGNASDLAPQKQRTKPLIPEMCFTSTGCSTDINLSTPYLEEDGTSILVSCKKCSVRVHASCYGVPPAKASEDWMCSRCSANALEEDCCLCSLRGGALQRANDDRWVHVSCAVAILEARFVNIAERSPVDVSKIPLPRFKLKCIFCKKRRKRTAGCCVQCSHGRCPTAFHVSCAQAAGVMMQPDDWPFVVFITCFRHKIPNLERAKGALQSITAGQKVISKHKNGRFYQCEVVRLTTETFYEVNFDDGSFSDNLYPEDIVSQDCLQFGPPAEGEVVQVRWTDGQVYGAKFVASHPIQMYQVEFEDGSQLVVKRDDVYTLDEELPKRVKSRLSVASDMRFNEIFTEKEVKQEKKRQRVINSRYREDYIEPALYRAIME

| Compound | Potency | activity change, negative = inhibition |
| --- | --- | --- |
| CCCCC1=CC2=C(c3ccco3)C(=O)C(C)(OC(=O)c3ccc(OC)cc3)C(=O)C2=CN1Cc1ccccc1 (stereo not given) | inconclusive: 56.2 µM [inhibitor, partial curve] | – |
| COc1cccc(C(=O)Nc2ccccc2C(=O)N2CCCC2)c1 | – | inactive: -9.57% |
| CCc1ccc(CNC(=O)c2cc(=O)[nH]c3ccc(S(=O)(=O)N4CCCCC4)cc23)cc1 | – | inactive: -6.73% |
| CCOc1ccc(NC(=O)CC2C(=O)N(c3ccc(F)cc3)C(=O)N2Cc2ccc(OC)c(OC)c2)cc1 (stereo not given) | – | inactive: -12.3% |
| O=[N+]([O-])c1ccc(-c2nnc3cccc(Cl)n23)cc1 | active: 56.2 µM | – |
| COc1ccc(S(=O)(=O)NCC(c2cccnc2)N2CCN(c3ccccc3)CC2)cc1C (stereo not given) | inconclusive: 63.1 µM [inhibitor, partial curve, poor fit] | – |
| Cc1cc(C(=O)Nc2ccc(Nc3ccccc3)cc2)ccc1[N+](=O)[O-] | active: 10 µM | – |
| CC(/C=N/NC(=O)c1cc(-c2ccncc2)nc2ccccc12)=C\c1ccco1 | inconclusive: 39.8 µM [inhibitor, partial curve] | – |
| O=C(CSc1nc2cc(C(=O)NC3CCCC3)ccc2c(=O)n1CC1CCCO1)c1cccc(Cl)c1 (stereo not given) | – | inactive: -14.6% |
| COc1ccc(CC(=O)N/N=C(\C)CC(=O)Nc2ccc3c(c2)OCCO3)cc1 | inconclusive: 56.2 µM [inhibitor, partial curve, poor fit] | – |
| Cn1c(=O)oc2cc(S(=O)(=O)NC(Cc3ccccc3)C(=O)Nc3ccc(F)cc3)ccc21 (stereo not given) | – | inactive: -12.1% |
| Cc1ccc(Cn2c(C(=O)O)c(CNCc3ccc(OC(C)C)cc3)c3ccc(C)cc32)cc1 | inconclusive: 14.1 µM [inhibitor, full curve, poor fit] | – |
| COc1ccc(OC)c(NC(=O)CSc2ccc(-c3cccs3)nn2)c1 | inconclusive: 39.8 µM [inhibitor, partial curve] | – |
| CC12CCC(C(=O)NCc3ccco3)(OC1=O)C2(C)C (stereo not given) | – | inactive: -13.5% |
| COc1ccc(C2=Nn3c(nnc3-c3cc(OC)ccc3OC)SC2)c(OC)c1 | active: 79.4 µM | – |
| Cc1ccc(C(=O)NCC(=O)OC(C(=O)Nc2cc(C(F)(F)F)ccc2Cl)c2ccccc2)cc1 (stereo not given) | – | inactive: -19.9% |
| COc1ccc(CC(=O)NCC2CCCN(Cc3cccc(C(F)(F)F)c3)C2)cc1 (stereo not given) | inconclusive: 20 µM [inhibitor, single point] | – |
| Cc1cc(OCCCCCn2ccnc2)cc(C)c1Cl | inconclusive: 79.4 µM [inhibitor, partial curve] | – |
| COc1ccc(C(=O)N[C@H](C(=O)Nc2nc3ccccc3[nH]2)C(C)C)cc1 | inconclusive: 28.2 µM [inhibitor, partial curve] | – |
| CCN1CCN(S(=O)(=O)c2ccc(Cl)c(C(=O)N(C)Cc3ccco3)c2)CC1 | – | inactive: -5.52% |
| CCc1ccc(NC(=O)COc2coc(CN3CCc4ccccc4C3)cc2=O)cc1 | – | inactive: -6.08% |
| C/C(=N\NC(=O)c1ccncc1)c1ccc(N(C)C)cc1 | active: 17.8 µM | – |
| CC(=O)c1cccc(NC(=O)c2ccc3c(c2)OCO3)c1 | inconclusive: 14.1 µM [inhibitor, partial curve, poor fit] | – |
| Cc1ccccc1Nc1cc(C(=O)NCCCN2CCN(c3cccc(Cl)c3)CC2)c2ccccc2n1 | inconclusive: 50.1 µM [inhibitor, partial curve] | – |

| Compound | Potency | activity change, negative = inhibition |
| --- | --- | --- |
| Cc1ccc(N2C(=O)N(CC(=O)Nc3ccc(C)c(C)c3[N+](=O)[O-])C(=O)C2C)cc1 (stereo not given) | – | inactive: -3.44% |
| O=C(CSc1n[nH]c(-c2cccs2)n1)NCc1cccs1 | – | inactive: -10.7% [at 57.1 µM] |
| COC(=O)c1ccc(C2/C(=C(/O)c3ccc4c(c3)CC(C)O4)C(=O)C(=O)N2Cc2cccnc2)cc1 (stereo not given) | inconclusive: 79.4 µM [inhibitor, partial curve, poor fit] | – |
| Cc1ccc(C(C)C)c(OCCSc2nc(-c3ccccc3F)nc3cc(=O)[nH]n23)c1 | inconclusive: 39.8 µM [inhibitor, full curve] | – |
| COc1ccc(C2c3c(ncn(CCCc4ccccc4)c3=N)Oc3ccc4ccccc4c32)cc1OC (stereo not given) | inconclusive: 44.7 µM [inhibitor, partial curve] | – |
| COc1ccc(-c2cc(C(=O)N/N=C/c3ccc(OC)c(COCC(F)(F)C(F)F)c3)c3ccccc3n2)c(OC)c1 | inconclusive: 3.55 µM [inhibitor, single point] | – |
| Cc1[nH]c2ccccc2c1C(=O)/C=C\c1ccccc1Cl | inconclusive: 20 µM [inhibitor, partial curve] | – |
| Cc1ncsc1C(=O)N1N=C2/C(=C/c3ccc(N4CCOCC4)cc3)CCCC2C1c1ccc(N2CCOCC2)cc1 (stereo not given) | inconclusive: 31.6 µM [inhibitor, partial curve] | – |
| CCCCN(CCO)CCCC | – | inactive: -0% |
| Cc1cccc(C(=O)OCC(=O)NN2C(=O)NC3(CCC(C)CC3)C2=O)c1O (stereo not given) | inconclusive: 35.5 µM [inhibitor, partial curve] | – |
| O=Cc1cc([N+](=O)[O-])ccc1N1CCN(Cc2ccc3c(c2)OCO3)CC1 | inconclusive: 39.8 µM [inhibitor, full curve] | – |
| Cn1nnc2c(N3CCN(c4cccc(Cl)c4)CC3)ncnc21 | – | inactive: -14.9% |
| COc1ccc(CSc2nnc(SCc3ccc([N+](=O)[O-])cc3)s2)cc1 | – | inactive: -14.9% |
| CCOc1ccc(S(=O)(=O)N2CCC(C(=O)N3CCN(c4ccccc4F)CC3)CC2)cc1C | – | inactive: -22.1% |
| CCOc1ccc(CCNC(=O)C2CCN(C(=O)N3CC(CC)Oc4ccccc43)CC2)cc1 (stereo not given) | inconclusive: 22.4 µM [inhibitor, full curve] | – |
| COc1ccc(N2CCN(C(=O)c3ccccc3Br)CC2)c([N+](=O)[O-])c1 | inconclusive: 28.2 µM [inhibitor, full curve] | – |
| COc1ccc(NC(c2nnc(-c3ccccc3)o2)c2ccccc2F)cc1Cl (stereo not given) | inconclusive: 35.5 µM [inhibitor, partial curve] | – |
| Cc1ccc(OCCN2C(=O)NC3(CCc4ccccc4C3)C2=O)cc1 (stereo not given) | – | inactive: -4.68% |
| COc1ccccc1N(CC(=O)Nc1ccccc1C(F)(F)F)S(=O)(=O)c1cccs1 | – | inactive: -13.5% |
| O=C(c1ccccn1)N(Cc1cc2ccccc2[nH]c1=O)C1CCCCC1 | – | inactive: -4.74% |
| COc1ccc(CNCc2cc(OC)ccc2OC)cc1 | active: 28.2 µM | – |
| O=C(CNCC1CCCCC1)Nc1ccc(OC(F)(F)F)cc1 | active: 3.55 µM | – |
| CN1CCCN(S(=O)(=O)c2ccccc2)CC1 | inconclusive: 31.6 µM [inhibitor, partial curve] | – |
| Cc1scc(C(=O)N/N=C/c2ccc(Cl)s2)c1C | – | inactive: -3.42% |

| Compound | Potency | activity change, negative = inhibition |
| --- | --- | --- |
| O=C(Nc1ccc(CN2CCOCC2)cc1)c1ccc(N2CCCC2)c([N+](=O)[O-])c1 | inconclusive: 56.2 µM [inhibitor, partial curve] | – |
| COc1ccc2[nH]c(=O)c(CN(Cc3cccs3)C(=S)Nc3cccc(C)c3)cc2c1 | – | inactive: -22% |
| Cc1ccc(NS(=O)(=O)c2ccc(Cl)c(C(=O)Nc3ccccc3-c3nc4ccccc4[nH]3)c2)cc1C | inconclusive: 39.8 µM [inhibitor, single point] | – |
| O=C(N/N=C/c1cccnc1)c1cc(-c2ccccc2)nc2ccccc12 | inconclusive: 70.8 µM [inhibitor, partial curve, poor fit] | – |
| CCOC(=O)c1c(CSC(=N)N)n(-c2ccc(Br)cc2)c2cc(Br)c(OC(C)=O)cc12 | – | inactive: -35.9% |
| COc1ccc(-c2csc(NC(=S)NC(=O)/C=C/c3ccc(C(C)C)cc3)n2)cc1OC | inconclusive: 63.1 µM [inhibitor, partial curve, poor fit] | – |
| Cc1oc(-c2cccc(Cl)c2)nc1CN1CCCC(C(=O)NC(C)c2ccc3c(c2)OCCO3)C1 (stereo not given) | inconclusive: 50.1 µM [inhibitor, partial curve] | – |
| CCCCn1nc(NC(=O)c2cccc(Cl)c2)c2cc3cccc(C)c3nc21 | – | inactive: 15.6% |
| CC(=O)C1=C(O)C(=O)N(CCc2c[nH]c3ccccc23)C1c1ccc(O)cc1 (stereo not given) | active: 89.1 µM | – |
| CN1C[C@@H]2C(c3ccccc3)C3(c4cccnc4)CC2(C3)[C@H]1c1ccccc1 (stereo not given in full) | inconclusive: 50.1 µM [inhibitor, partial curve, poor fit] | – |
| Cn1c(CSCc2ccccc2)n[nH]c1=S | active: 7.94 µM | – |
| COC(=O)CCCC1=CC2=CC(=O)C(C)(OC(=O)C3CCCC3)C(=O)C2=CO1 (stereo not given) | inconclusive: 50.1 µM [inhibitor, partial curve] | – |
| COc1ccc(-c2n[nH]c(=S)n2/N=C/C=C/c2ccccc2OC)cc1 | active: 79.4 µM | – |
| CC12CCC(=O)N1C(C(=O)Nc1nc3ccc(Cl)cc3s1)CS2 (stereo not given) | inconclusive: 39.8 µM [inhibitor, full curve, poor fit] | – |
| Nc1ccc2c(c1)OC1(CCCCC1)O2 | active: 56.2 µM | – |
| O=C(COC(=O)c1ccc(Br)o1)Nc1ncc(Cl)cc1Cl | inconclusive: 100 µM [inhibitor, partial curve] | – |
| COc1cccc(/C=N/Nc2ccnc(=O)[nH]2)c1O | inconclusive: 89.1 µM [inhibitor, single point] | – |
| O=C(CCN1C(=O)c2cccc3cccc(c23)C1=O)Nc1ccccc1 | – | inactive: 7.86% |
| COc1c(C)cc(NC(=O)c2ccc3c(c2)NC(=O)CO3)cc1C | – | inactive: -17.8% |
| CCOc1cc(/C=C(\C#N)C(=O)Nc2cccc(C(=O)O)c2)ccc1OCc1ccc(Br)cc1 | inconclusive: 12.6 µM [inhibitor, full curve] | – |
| COc1ccc(C=NNc2ccc([N+](=O)[O-])cc2S(=O)(=O)Nc2ccccc2C(=O)O)cc1OC | inconclusive: 89.1 µM [inhibitor, single point] | – |
| COc1ccccc1CNC(=O)CCC1N=C2c3ccccc3N=C(SCC(=O)Nc3ccc(N(C)C)cc3)N2C1=O (stereo not given) | inconclusive: 39.8 µM [inhibitor, partial curve] | – |
